Results from article PMC4336329 (PLoS ONE, 2015).
The campaign covered roughly 310,000 compounds. About 2,200 (0.71%) showed an effect of 50% or more. The effect is printed as a negative number. This is one part of the list.

target: human ether-à-go-go-related gene (hERG) potassium channel (human, UniProt Q12809); assay: primary screen, population patch clamp on CHO cells stably expressing hERG
Sequence (Q12809 whole entry, looked up): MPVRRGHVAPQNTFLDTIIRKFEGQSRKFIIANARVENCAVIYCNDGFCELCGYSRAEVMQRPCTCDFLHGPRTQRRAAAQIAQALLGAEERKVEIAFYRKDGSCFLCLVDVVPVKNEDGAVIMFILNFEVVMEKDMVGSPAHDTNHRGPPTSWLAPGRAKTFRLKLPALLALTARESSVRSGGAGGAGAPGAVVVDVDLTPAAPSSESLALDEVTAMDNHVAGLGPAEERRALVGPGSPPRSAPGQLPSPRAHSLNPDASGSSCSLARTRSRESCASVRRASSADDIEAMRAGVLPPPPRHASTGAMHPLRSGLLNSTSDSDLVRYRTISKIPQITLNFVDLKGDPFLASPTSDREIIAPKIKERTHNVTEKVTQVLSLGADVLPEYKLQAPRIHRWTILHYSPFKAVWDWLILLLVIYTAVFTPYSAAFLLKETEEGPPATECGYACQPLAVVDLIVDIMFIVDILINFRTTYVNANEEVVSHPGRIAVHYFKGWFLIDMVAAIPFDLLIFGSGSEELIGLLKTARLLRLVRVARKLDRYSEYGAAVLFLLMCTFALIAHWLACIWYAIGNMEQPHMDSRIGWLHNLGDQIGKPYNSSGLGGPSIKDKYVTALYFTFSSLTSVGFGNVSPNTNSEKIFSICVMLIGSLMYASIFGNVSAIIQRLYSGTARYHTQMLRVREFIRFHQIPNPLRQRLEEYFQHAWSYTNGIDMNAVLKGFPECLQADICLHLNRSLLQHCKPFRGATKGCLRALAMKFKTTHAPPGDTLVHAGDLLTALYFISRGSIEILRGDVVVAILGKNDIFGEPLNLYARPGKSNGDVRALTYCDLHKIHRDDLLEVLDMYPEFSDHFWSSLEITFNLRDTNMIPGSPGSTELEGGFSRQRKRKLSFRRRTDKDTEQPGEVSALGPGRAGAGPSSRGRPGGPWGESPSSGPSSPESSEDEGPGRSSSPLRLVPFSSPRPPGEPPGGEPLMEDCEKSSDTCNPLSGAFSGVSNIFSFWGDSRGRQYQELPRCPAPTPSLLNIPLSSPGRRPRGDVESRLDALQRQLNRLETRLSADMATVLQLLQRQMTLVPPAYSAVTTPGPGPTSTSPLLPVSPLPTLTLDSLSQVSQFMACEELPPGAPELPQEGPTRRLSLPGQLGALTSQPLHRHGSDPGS

First: CC(C)(CO)Nc1nc(Nc2ccccc2)nc(Nc2ccccc2)n1
Second: N#CN=C(c1ccccc1)c1ccccc1
The “hERG current change (%, negative = inhibition) at 1uM” value of the first is lower: 1.4% for the first, 14.6% for the second.

First: COc1cc2[nH]c(C(=O)Nc3ccc(F)cc3)cc2c(OC)c1OC
Second: COc1ccccc1NC(=O)c1ccc(NC(=O)CSc2nc(N)cc(=O)[nH]2)cc1
The “hERG current change (%, negative = inhibition) at 1uM” value of the first is lower: 10.7% for the first, 13.5% for the second.

First: Cc1ccccc1NC(=O)Cn1nnc(C(=O)NCc2ccco2)c1N
Second: CCC(C(=O)NCc1ccco1)N(C(=O)CNS(=O)(=O)c1ccc(C)cc1)c1ccccc1F (centres unmarked)
The “hERG current change (%, negative = inhibition) at 1uM” value of the first is lower: 4.07% for the first, 8.6% for the second.

Going from Cc1cnc(C(=O)NC2CC(C)(C)Cc3c2cnn3-c2ccccc2)cn1 (centres unmarked) to Cc1nc2cc(C(=O)OCC(=O)N(CC(C)C)C3CCS(=O)(=O)C3)ccc2n1-c1ccccc1 (centres unmarked), the “hERG current change (%, negative = inhibition) at 1uM” value rises from -3.1% to 3.89%.

Going from Cn1nc(C(=O)NCc2ccc(Cl)cc2)c2c1-c1ccccc1S(=O)(=O)C2 to CCc1ccc(NC(=O)Cn2ccn(-c3cccc(Cl)c3)c(=O)c2=O)cc1, the “hERG current change (%, negative = inhibition) at 1uM” value falls from 13.5% to -2.31%.

First: Cc1ccc(S(=O)(=O)c2nnn3c2nc(N2CCCCC2)c2ccccc23)cc1
Second: O=S(=O)(NC1CCCC1)c1ccc(S(=O)(=O)N2CCCN(Cc3ccccc3)C2)cc1
The “hERG current change (%, negative = inhibition) at 1uM” value of the first is higher: 3.01% for the first, -2.08% for the second.

Going from CCCCSc1nc2c(c(=O)n1CC)SC(C)C2 (centres unmarked) to CCCCc1c(C)nc2nc(SCc3ccc(Cl)cc3)[nH]n2c1=O, the “hERG current change (%, negative = inhibition) at 1uM” value falls from 14.4% to 5.15%.

Going from O=C(NNS(=O)(=O)c1ccccc1)C1CC(c2cccnc2)=NO1 (centres unmarked) to CCCCOc1ccc(C(=O)NCC(=O)NNC(=O)C2COc3ccccc3O2)cc1 (centres unmarked), the “hERG current change (%, negative = inhibition) at 1uM” value falls from 13.2% to -0.895%.

Going from CCc1cccc(CC)c1NC(=O)COn1nnc2ccc(C(F)(F)F)cc21 to CCc1cc(CNC(=O)CC2C(=O)NCCN2Cc2ccccc2C(F)(F)F)on1 (centres unmarked), the “hERG current change (%, negative = inhibition) at 1uM” value falls from 20.3% to 11.5%.

Going from CC1CCCCC1NC(=O)CCCCCn1c(=S)[nH]c2ccccc2c1=O (centres unmarked) to O=C(COC(=O)c1ccccn1)NC1CCCCC1, the “hERG current change (%, negative = inhibition) at 1uM” value falls from 10.5% to 6.24%.

Going from Cc1cccc(Nc2nc(N)nc(CN3CCC(C)CC3)n2)c1C to Cc1ccc(SC[C@H](Cc2ccccc2)N2CC[C@@H](C)CCC2=O)cc1, the “hERG current change (%, negative = inhibition) at 1uM” value falls from -2.5% to -3.01%.

Compared with C=CCn1c(O)c(C(C)=Nc2ccc(C(=O)O)cc2)c(=O)[nH]c1=O, CCOC(=O)C1=C(C)N(CCC(=O)O)C(=O)NC1c1ccccc1Cl (centres unmarked) is higher in “hERG current change (%, negative = inhibition) at 1uM” value: 10.5% for the first, 15.9% for the second.

Compared with CC(C)CC(COCc1ccc([N+](=O)[O-])cc1)N1CCN(C(=O)c2ccc(C(F)(F)F)cc2)CCC1=O (centres unmarked), COc1ccc(N2CCN(C(=O)c3cc4c(=O)n(Cc5ccccc5)ccc4nc3C)CC2)cc1 is higher in “hERG current change (%, negative = inhibition) at 1uM” value: -14.1% for the first, -1.72% for the second.

First: c1ccc2[nH]c(-c3ccncc3)nc2c1
Second: N#Cc1ccc(-c2cccs2)nc1SCc1cccnc1
The “hERG current change (%, negative = inhibition) at 1uM” value of the first is lower: 9.76% for the first, 15.3% for the second.

Going from COc1ccc2oc(C(=O)OCC(=O)N3CCN(S(=O)(=O)c4ccccc4)CC3)c(C)c2c1 to Cc1cccc(N2CCN(S(=O)(=O)c3c(C(=O)N4CCCCC4)c(C)n(C)c3C)CC2)c1C, the “hERG current change (%, negative = inhibition) at 1uM” value falls from 18.4% to 9.29%.

First: CCn1c(-c2csc(-c3ccc(Cl)cc3)n2)n[nH]c1=S
Second: CCc1nc(SCc2ccccc2)n[nH]1
The “hERG current change (%, negative = inhibition) at 1uM” value of the first is lower: 9.28% for the first, 12.5% for the second.

Going from Cc1ccc(N2C(N)=C(C#N)C3(C(=O)N(C)c4ccccc43)C3=C2CC(C)(C)CC3=O)cc1Cl (centres unmarked) to Cc1ccc(-c2ccc(=O)n(Cc3cc(C)ccc3C)n2)cc1, the “hERG current change (%, negative = inhibition) at 1uM” value rises from 4.85% to 16.1%.

First: O=C1NC2C(NC(=O)N2C2CCCCC2)N1C1CCCCC1 (centres unmarked)
Second: CCO.O=c1[nH]c(NNC(=S)NCc2ccccc2)nc2c1C1(CCCCC1)Cc1ccccc1-2
The “hERG current change (%, negative = inhibition) at 1uM” value of the first is higher: 17% for the first, 10.2% for the second.

First: COc1ccc(OC)c(-c2c3c([nH]c(=S)c2C#N)CCCC3)c1
Second: COc1ccc(CCNC(=O)c2noc3c2CCCC3)cc1OC
The “hERG current change (%, negative = inhibition) at 1uM” value of the first is higher: 10.1% for the first, 2.66% for the second.

Compared with COCCOC(=O)C1=C(N)Oc2c(oc(CO)cc2=O)C1c1ccccc1F (centres unmarked), COC(=O)Cc1c(C)nc2nc(NCc3c(F)cccc3Cl)[nH]n2c1=O is lower in “hERG current change (%, negative = inhibition) at 1uM” value: 0.408% for the first, -3.86% for the second.

First: COc1cccc(/C=N/n2c(COc3ccccc3)n[nH]c2=S)c1OC
Second: Cc1ccc(/C(N)=N/OC(=O)/C=C/c2ccccc2)cc1
The “hERG current change (%, negative = inhibition) at 1uM” value of the first is higher: 16.1% for the first, 9.84% for the second.

First: CC(=O)NC(CCS(C)(=O)=O)C(=O)Nc1ccccc1 (centres unmarked)
Second: COc1ccc(O)c(C(=O)c2cnc3onc(C(C)C)c3c2)c1
The “hERG current change (%, negative = inhibition) at 1uM” value of the first is lower: 19.2% for the first, 25.3% for the second.
